# Assay results from PubChem BioAssay AID651812 (National Center for Advancing Translational Sciences (NCATS), 2012).
# About 650 (31%) of roughly 2,100 compounds were called active. The shares of active, inactive and inconclusive entries below differ from those in the screen. The call rests on the fitted dose curve; in most records, active means well fitted inhibition curve with a large enough effect; inconclusive means small, poorly fitted or top-dose-only effect; inactive means flat fitted curve, though single readings scatter. A potency beside an inconclusive call is a rough fit, not a confirmed value.
# Assay: qHTS for inhibitors of Vif-A3G interactions: Cherry picks; further: nearly all actives have a fitted effect of over 80% in size; on activity, negative = fluorescence increase: % of control where 0% means no effect
# Details: HeLa A3G-eYFP + Vif (tagged APOBEC3G with the HIV-1 protein that degrades it), 24 h; Potency: eYFP fluorescence increase unless noted; activity, negative = fluorescence increase: at 36.9 µM (top of the series) unless noted
# How it was run: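 Cherry-picked compounds tested at several concentrations on A3G-eYFP/Vif HeLa cells for 24 hours; loss of Vif-driven degradation read as eYFP fluorescence by cytometric plate imaging, 488 nm excitation, 500-530 nm emission.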
# Potency means the concentration at half of the fitted maximal effect; tags describe the fitted curve by direction and shape.
Structure (SMILES),Potency,"activity, negative = fluorescence increase"
O=C1c2ccccc2-c2nc3ccccc3cc21,"inconclusive: 8.2 µM [inhibitor, partial curve]",
CCn1c(SCC(=O)c2c[nH]c3ccccc23)nnc1-c1cccs1,"inconclusive: 29.1 µM [inhibitor, single point]",
Nc1c(C(=O)Nc2nccs2)sc2nc(-c3cccs3)cc(C(F)(F)F)c12,active: 14 µM,
CCOC(=O)c1cc2n(c1N)-c1ccccc1C2=O,"inconclusive: 18.4 µM [inhibitor, single point]",
COC(=O)c1cnc(Nc2cc(C)ccc2OC)c2ccccc12,"inconclusive: 25.9 µM [inhibitor, single point]",
N#Cc1ccccc1NC(=O)CSc1nc(-c2ccccc2)cc(C(F)(F)F)c1C#N,"inconclusive: 11.6 µM [inhibitor, partial curve]",
Cc1ccccc1N1C(=O)c2cccc3c(N(C)CCO)ccc(c23)C1=O,active: 20.6 µM,
COc1ccc(S(=O)(=O)Nc2ccccc2-c2nc3ccccc3[nH]c2=O)cc1,"inconclusive: 2.59 µM [inhibitor, partial curve]",
CCN(CC)C(=O)CSC(Nc1cccc(F)c1)=C(C#N)C#N,"inconclusive: 2.59 µM [inhibitor, partial curve, poor fit]",
COc1cc(N2CCCC2)c(OC)cc1/C=C(/C#N)c1ccc(Br)cc1,active: 8.2 µM,
CCC(C)Sc1cc(-c2nc3ccccn3c2NC2CCCCC2)ccc1OC (stereo not given),"inconclusive: 29.1 µM [inhibitor, single point]",
C/C(=N/N=C(\C)c1ccccc1O)c1ccccc1O,"inconclusive: 29.1 µM [inhibitor, single point]",
Oc1ccc(/C=N\Nc2nncc(-c3ccccc3)n2)cc1,"inconclusive: 25 µM [inhibitor, single point]",
Cc1cc(NC(=O)N2CC=C(c3c[nH]c4ccccc34)CC2)ccc1Br,"inconclusive: 29.1 µM [inhibitor, single point]",
c1cc(SC2CCCCC2)cc(-c2nc3cnccn3c2NC2CCCCC2)c1,"inconclusive: 29.1 µM [inhibitor, single point]",
Cn1c(=O)c(N)c2c3c(c(Br)ccc31)C(=O)c1ccccc1-2,active: 2.91 µM,
COCc1cc(C)nc(SCC(=O)Nc2ccc3[nH]c(=O)[nH]c3c2)c1C#N,"inconclusive: 0.0041 µM [inhibitor, full curve, poor fit]",
CCOc1ccc(CNC(=O)c2cccc(Nc3nc4ccccc4n4nnnc34)c2)cc1OC,,inconclusive: -35.1% [inhibitor] [at 46.1 µM]
N#CCSc1ccccc1NC(=O)COc1ccc(-c2nnco2)cc1,"inconclusive: 15.8 µM [inhibitor, single point]",
CC(=O)c1cccc(NC(=O)C2CCCN(S(=O)(=O)c3cccc4nonc34)C2)c1 (stereo not given),,inactive: -16.3% [at 46.1 µM]
Cc1cc(Br)ccc1SCC(=O)OC/C(O)=C(\C#N)c1nc2ccccc2[nH]1,"inconclusive: 29.1 µM [inhibitor, single point]",
COc1ccc(OC)c(NC(=O)c2cc(-c3cc(C)cc(C)c3O)n[nH]2)c1,"inconclusive: 23.1 µM [inhibitor, single point]",
Cc1ccc(-c2cn3nc(-c4ccccc4)c(-c4ccccc4)nc3n2)cc1,active: 20.6 µM,

Structure (SMILES),Potency,"activity, negative = fluorescence increase"
O=C(O)CCCN1C(=O)/C(=C\C(Cl)=C\c2ccccc2)SC1=S,"inconclusive: 4.98 µM [inhibitor, single point]",
COc1cc(C(=O)Nc2ccc3c(c2)nc(C)n3C)cc(OC)c1OC,,inactive: -0.44%
O=C(N/N=C/c1ccc(-c2ccc([N+](=O)[O-])cc2)o1)[C@H]1C[C@@H]1c1ccccc1,"inconclusive: 29.1 µM [inhibitor, single point]",
Cc1ccc2nc(/C(C#N)=C/c3ccc(-c4cccc([N+](=O)[O-])c4)o3)[nH]c2c1,"inconclusive: 4.11 µM [inhibitor, single point]",
CNC(=S)N/N=C(\C)c1ccc(Cl)s1,,inactive: -0.736% [at 46.1 µM]
Cc1cc2oc3ccc(NCCCn4ccnc4)cc3c(=O)c2cc1C,"inconclusive: 29.1 µM [inhibitor, single point]",
NC(=O)c1c(NC(=O)c2ccccc2)sc2c1CCN(Cc1ccccc1)C2,"inconclusive: 17.7 µM [inhibitor, single point]",
Cc1noc(C)c1C(=O)OCC(=O)Nc1ccccc1SCC#N,"inconclusive: 16.4 µM [inhibitor, single point]",
CCCCn1c(NC(=O)c2ccco2)c(S(=O)(=O)c2ccc(C)cc2)c2nc3ccccc3nc21,"inconclusive: 29.1 µM [inhibitor, single point]",
COC1=C/C(=C/c2c(N)n3nc(-c4ccc(C)cc4)sc3nc2=O)C=CC1=O,active: 14.6 µM,
CCOC(=O)CN1C(=O)S/C(=C/C=C/c2ccc(N(C)C)cc2)C1=O,"inconclusive: 6.51 µM [inhibitor, single point]",
COc1ccc(N/C=C2\C(=O)CCc3c2oc2cc(Cl)c(O)c(Cl)c32)cc1,"inconclusive: 29.1 µM [inhibitor, single point]",
COc1ccc(C(=O)NC2CCCc3ccccc32)cc1[N+](=O)[O-] (stereo not given),,inactive: 1.3%
Oc1[nH]c2ccccc2c1N=Nc1ccccc1,"inconclusive: 29.1 µM [inhibitor, single point]",
Cc1cccc(C(=O)Nc2nnc(C3=COCCO3)o2)c1,,inactive: 7.13% [at 46.1 µM]
O=[N+]([O-])c1ccccc1C=NNC(=S)NN=Cc1ccccc1[N+](=O)[O-],,inactive: -14.3%
COCCCN(C(C)=O)c1nc(-c2ccc(OC)cc2)cs1,,inactive: -3.78%
CCNc1cc(N2CCN(C3CCCCC3)CC2)c2noc3c2c1C(=O)c1ccccc1-3,active: 16.4 µM,
CCn1c2ccccc2c2c3ncc4cccn4c3ccc21,active: 23.1 µM,
COc1ccc2nc(C)cc(SCC(=O)N/N=C/c3cccc4ccccc34)c2c1,"inconclusive: 25 µM [inhibitor, single point]",
S=c1[nH]nc(-c2cccnc2)n1/N=C/C(Cl)=C\c1ccccc1,,inactive: -14.4%
C[n+]1ccc(/C=C/c2c[nH]c3ccc(F)cc23)cc1,active: 14.6 µM,
